# Data: PubChem BioAssay AID504333 (National Center for Advancing Translational Sciences (NCATS), 2011)
# In all, about 360,000 compounds went through this assay and about 16,000 (4.4%) were called active. The shares of active, inactive and inconclusive entries below differ from those in the screen. Calls come from the whole dose curve; as a rule, active = well fitted inhibition curve with a large enough effect; inconclusive = small, poorly fitted or top-dose-only effect; inactive = no such curve, though single readings can be large or run the other way. A potency beside an inconclusive call is a rough fit, not a confirmed value.
# Target: Bromodomain adjacent to zinc finger domain protein 2B (Homo sapiens) (UniProt Q9UIF8)
# Experiment: qHTS Assay for Inhibitors of BAZ2B; note: nearly all actives have a fitted effect of over 60% in size
# Settings: AlphaScreen BAZ2B-H3K14Ac peptide displacement; series mostly up to 114 µM
# How it was run: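 BAZ2B (50 nM) with biotin-H3(5-23)K14Ac peptide (50 nM) in PBS pH 7.4, 0.01% Tween-20, preformed 30 min, then compound 30 min at room temperature; top concentration 110uM. AlphaScreen streptavidin donor/nickel chelate acceptor beads (10 ug/mL final), 20 min dark, signal read.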
# Potency is the fitted concentration of half-maximal effect; tags give direction and shape of the fitted curve.
# Sequence of UniProt Q9UIF8 (Q9UIF8 whole entry, looked up, the tested form may be a part): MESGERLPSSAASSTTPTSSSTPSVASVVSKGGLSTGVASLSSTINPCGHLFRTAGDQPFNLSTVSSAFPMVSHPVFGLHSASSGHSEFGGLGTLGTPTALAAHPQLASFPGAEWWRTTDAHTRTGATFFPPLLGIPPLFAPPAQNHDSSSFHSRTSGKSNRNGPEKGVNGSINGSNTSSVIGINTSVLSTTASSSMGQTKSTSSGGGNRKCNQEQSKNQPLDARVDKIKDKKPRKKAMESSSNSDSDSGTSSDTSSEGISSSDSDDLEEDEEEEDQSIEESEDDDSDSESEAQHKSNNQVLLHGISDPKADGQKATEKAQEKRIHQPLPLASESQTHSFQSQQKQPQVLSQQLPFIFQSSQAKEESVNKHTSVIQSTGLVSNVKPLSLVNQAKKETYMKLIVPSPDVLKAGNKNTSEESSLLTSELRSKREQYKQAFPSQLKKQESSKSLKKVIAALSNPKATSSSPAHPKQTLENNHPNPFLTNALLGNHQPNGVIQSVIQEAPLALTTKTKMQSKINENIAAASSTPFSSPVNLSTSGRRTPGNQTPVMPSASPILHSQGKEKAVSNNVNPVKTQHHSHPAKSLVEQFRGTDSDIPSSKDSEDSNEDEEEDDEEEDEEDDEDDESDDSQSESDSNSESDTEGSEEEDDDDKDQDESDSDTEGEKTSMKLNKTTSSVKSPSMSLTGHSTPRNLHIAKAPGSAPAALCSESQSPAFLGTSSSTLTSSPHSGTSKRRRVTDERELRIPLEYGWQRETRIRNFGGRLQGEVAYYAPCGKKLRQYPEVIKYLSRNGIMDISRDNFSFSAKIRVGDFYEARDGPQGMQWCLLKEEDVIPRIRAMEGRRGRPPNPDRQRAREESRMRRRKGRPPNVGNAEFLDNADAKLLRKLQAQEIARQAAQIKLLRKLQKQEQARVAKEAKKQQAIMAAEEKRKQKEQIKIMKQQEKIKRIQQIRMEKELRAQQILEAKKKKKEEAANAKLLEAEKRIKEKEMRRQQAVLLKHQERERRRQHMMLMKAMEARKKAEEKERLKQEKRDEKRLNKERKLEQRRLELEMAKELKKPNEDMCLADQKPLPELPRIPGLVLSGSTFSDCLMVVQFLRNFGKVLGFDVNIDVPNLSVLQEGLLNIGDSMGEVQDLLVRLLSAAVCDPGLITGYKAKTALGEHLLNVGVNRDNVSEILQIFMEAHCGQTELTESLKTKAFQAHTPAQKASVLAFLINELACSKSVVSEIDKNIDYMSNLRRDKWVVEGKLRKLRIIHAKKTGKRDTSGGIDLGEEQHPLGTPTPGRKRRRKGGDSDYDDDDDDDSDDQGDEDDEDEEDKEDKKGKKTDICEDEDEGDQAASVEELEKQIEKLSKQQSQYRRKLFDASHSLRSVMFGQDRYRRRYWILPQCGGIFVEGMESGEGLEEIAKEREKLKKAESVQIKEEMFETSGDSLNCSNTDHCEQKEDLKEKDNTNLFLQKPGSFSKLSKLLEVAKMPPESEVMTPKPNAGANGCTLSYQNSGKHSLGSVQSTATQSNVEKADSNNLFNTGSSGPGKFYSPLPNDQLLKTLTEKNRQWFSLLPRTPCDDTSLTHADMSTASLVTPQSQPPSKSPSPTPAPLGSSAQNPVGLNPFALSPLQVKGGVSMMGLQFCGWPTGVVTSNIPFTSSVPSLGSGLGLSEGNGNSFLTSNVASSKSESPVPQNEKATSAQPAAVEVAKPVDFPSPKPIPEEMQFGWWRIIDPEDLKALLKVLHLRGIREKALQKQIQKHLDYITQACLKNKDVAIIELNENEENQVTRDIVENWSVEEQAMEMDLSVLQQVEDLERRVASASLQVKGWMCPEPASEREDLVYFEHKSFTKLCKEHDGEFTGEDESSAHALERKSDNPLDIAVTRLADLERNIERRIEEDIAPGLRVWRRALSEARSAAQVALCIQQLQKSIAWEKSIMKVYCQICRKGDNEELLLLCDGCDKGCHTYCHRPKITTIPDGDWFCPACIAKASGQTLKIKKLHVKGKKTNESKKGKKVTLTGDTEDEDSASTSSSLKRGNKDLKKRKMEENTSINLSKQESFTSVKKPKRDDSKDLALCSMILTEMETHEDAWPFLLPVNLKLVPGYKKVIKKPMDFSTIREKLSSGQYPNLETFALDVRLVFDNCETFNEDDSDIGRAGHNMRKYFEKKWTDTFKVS
row,Structure (SMILES),Potency
1,Cc1ccc(OCc2nc(C#N)c(NCCCn3ccnc3)o2)cc1,active: 50.1 µM
2,O=C(NC1CC2CCCC(C1)N2C(=O)NC1CCCCC1)c1ccccc1 (configuration not stated),inactive
3,CCOC(=O)C1=C(C)NC2(O)c3ccccc3C(=O)C12O (configuration not stated),"inconclusive: 100 µM [inhibitor, single point]"
4,Cc1[nH]c(=O)c(C#N)c(C)c1CCC(=O)Nc1cc(S(C)(=O)=O)ccc1Cl,inactive
5,Cc1ccc(-c2ccc(CCC(=O)O)n2C(C)C)cc1,"inconclusive: 79.4 µM [inhibitor, single point]"
6,CCOc1ccc(N=C(/C(C(=O)C(=O)N2CCOCC2)=C(/O)c2ccccc2)c2ccccc2)cc1,"inconclusive: 79.4 µM [inhibitor, single point]"
7,COc1ccc(Nc2c(-c3ccc(Cl)cc3)nc3cnccn23)cc1OC,active: 44.7 µM
8,O=C(NC(=O)N1CCCCCC1)c1ccc(Cl)cc1,inactive
9,N#CC(C(=O)NC1CC1)c1nc2ccccc2nc1N1CCCC1 (configuration not stated),"inconclusive: 70.8 µM [inhibitor, single point]"
10,Cc1ccc(-c2csc3nc4c5ccccc5c(NCCCN5CCOCC5)nn4c(=O)c23)cc1,inactive
11,Cc1nc2sccn2c1-c1nc(-c2cc3ccccc3o2)cs1,"inconclusive: 44.7 µM [inhibitor, partial curve]"
12,CCCn1c(C2CCCN2c2nc(-c3cccc(Br)c3)cs2)nc2ccccc21 (configuration not stated),"inconclusive: 39.8 µM [inhibitor, partial curve]"
13,O=C(Cn1cccc1)Nc1ccc(OC(F)(F)F)cc1,"inconclusive: 79.4 µM [inhibitor, single point]"
14,Cc1ccccc1CN1CCC(CNc2ncnc3onc(-c4ccc(Cl)cc4)c23)CC1,inactive
15,CC(C)(CNC(=S)NCCc1ccccc1)CNC(=S)NCCc1ccccc1,"inconclusive: 31.6 µM [inhibitor, full curve, poor fit]"
16,Cc1ccc(CN2CCSc3ccc(C(=O)Nc4ccc(Cl)cc4)cc32)cc1,inactive
17,[O-]/C(=C(\C(=S)Nc1ccccc1F)[n+]1ccccc1)c1ccc(-c2ccccc2)cc1,inactive
18,CC(C)N(C(=O)CSc1nc2ccccc2n1Cc1ccccc1)C(C)C,inactive
19,Cc1ccccc1S(=O)(=O)N1[C@@H](c2cccc(Cl)c2)C(C(=O)O)=CC[C@H]1c1ccc(Cl)cc1,active: 79.4 µM
20,CCOC(=O)c1c(/N=C/C2=C(O)CC(C)(C)CC2=O)sc(C(C)=O)c1C,"inconclusive: 79.4 µM [inhibitor, single point]"
21,COc1cccc(CNC(=O)Cn2c(=O)oc3cc(S(=O)(=O)N4CCCC4)ccc32)c1,inactive
22,O=C(c1cccnc1)N1C2C=CC(C2)C1(C(F)(F)F)C(F)(F)F (configuration not stated),"inconclusive: 100 µM [inhibitor, single point]"
23,CCC(C)[C@H](NC(=O)N1CC(=O)Nc2ccccc21)C(=O)N[C@@H](Cc1c[nH]c2ccccc12)C(=O)O (some centres not stated),"inconclusive: 89.1 µM [inhibitor, single point]"
24,CCOc1ccc(NC(=O)CN(c2ccc([N+](=O)[O-])cc2)S(=O)(=O)c2ccccc2)cc1,"inconclusive: 44.7 µM [inhibitor, partial curve]"

row,Structure (SMILES),Potency
1,O=C1NN(c2ccccc2)C(=O)/C1=C/c1ccc(-c2ccc(C(=O)O)cc2)o1,active: 50.1 µM
2,CCOc1ccc(CNC(=O)C2CCN(S(=O)(=O)N3CCCCC3)CC2)cc1,inactive
3,O=C(O)c1cccc(NC(=O)c2cn(-c3ccccc3)nc2-c2ccncc2)c1,"inconclusive: 79.4 µM [inhibitor, partial curve]"
4,Cc1c(/C=N/NC(N)=O)c2ccccn2c1C(=O)c1ccc(F)cc1,"inconclusive: 50.1 µM [inhibitor, partial curve]"
5,Cn1c(O)c(N=NC(=O)c2ccccc2O)c2ccccc21,inactive
6,Cc1ccc(C(=O)/C=C/c2ccc3c(c2)OCCO3)c(O)c1,"inconclusive: 22.4 µM [inhibitor, partial curve]"
7,CC(C)n1nnnc1C(c1ccc(F)cc1)N1CCN(C2CCCC2)CC1 (configuration not stated),"inconclusive: 79.4 µM [inhibitor, single point]"
8,COc1cc(-c2nc(C(=O)NCC3CCCO3)cc3c2[nH]c2ccccc23)cc(OC)c1OC (configuration not stated),"inconclusive: 79.4 µM [inhibitor, single point]"
9,CCOc1cc(CNc2ccc(CNc3ncn[nH]3)cc2)ccc1OCc1ccccc1,"inconclusive: 35.5 µM [inhibitor, full curve]"
10,Oc1ccc(-c2nc3ccccn3c2Nc2ccc3c(c2)OCCO3)cc1,active: 39.8 µM
11,COc1ccc(N2CCN(CC(O)COC(C)(C)C)CC2)cc1 (configuration not stated),active: 44.7 µM
12,Cc1nc2ccc(C(=O)OCC(=O)N(C)c3ccccc3)cc2nc1C,inactive
13,O=C(NC1CC2CCCC(C1)N2S(=O)(=O)c1ccccc1)C1CCCCC1 (configuration not stated),"inconclusive: 3.55 µM [inhibitor, single point]"
14,CCOC(=O)c1c(NC(=O)C2C3C=CC(C3)C2C(=O)O)sc2c1CC(C)CC2 (configuration not stated),inactive
15,CCOc1ccc(NC(=O)CNC(=O)c2ccc(OC)c(OC)c2)cc1,"inconclusive: 100 µM [inhibitor, single point]"
16,COc1cccc(NC(=O)COC(=O)c2nc3nccc(C)n3n2)c1,"inconclusive: 100 µM [inhibitor, single point]"
17,COC(=O)c1ccc(N2NC(=O)/C(=C/c3ccc(-c4ccc(Cl)c(C(=O)O)c4)o3)C2=O)cc1,active: 50.1 µM
18,COc1ccc(N2CCN(C(=O)CCS(=O)(=O)c3ccc(OC)cc3)CC2)cc1,inactive
19,CC(Sc1nc2sc3c(c2c(=O)n1-c1ccccc1)CCCC3)C(=O)O (configuration not stated),inactive
20,CCNC(=O)C(=O)N/N=C/c1cc([N+](=O)[O-])ccc1O,active: 8.91 µM
21,Cc1ncoc1C(=O)N1CCCC(C(=O)c2ccc(-c3ccccc3)cc2)C1 (configuration not stated),"inconclusive: 79.4 µM [inhibitor, single point]"
22,CCOc1ccc(-c2csc(NNC3=NCCCCC3)n2)cc1,active: 50.1 µM
23,COC(=O)c1ccc(/C=N/N2C(C)CCCC2C)cc1 (configuration not stated),active: 56.2 µM
